We go through 172 sequences from paper PMC4242493.

The list shows a part of the results. The list includes weakly bound sequences.

The assay has as its target MaxL homodimer (UniProt P61244). The experiment in a line: universal protein-binding microarray (PBM). The note with it: PBS-based mixture, 10 nM His-tagged protein dimer, 2% milk, 200 ng/uL BSA, 50 ng/uL salmon testes DNA, 0.02% TX-100; detection with Alexa 488 anti-His …; high values mean tight binding; most listed sequences are background and not binding sites; double strand, one strand shown.
Sequence of UniProt P61244 (P61244 whole entry): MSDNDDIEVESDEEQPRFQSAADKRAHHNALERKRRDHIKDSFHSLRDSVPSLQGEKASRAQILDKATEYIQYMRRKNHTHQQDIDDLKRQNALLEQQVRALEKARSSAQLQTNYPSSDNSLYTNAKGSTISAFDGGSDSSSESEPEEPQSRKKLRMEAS
In the case of AGCCCCCG, the binding signal (normalized occupancy) stood at 0.072.

GGTGAAGA: the binding signal (normalized occupancy) amounted to 0.0783.

As for ATAACGTA, the binding signal (normalized occupancy) amounted to 0.0784.

On to GTCCTCCA, for which the binding signal (normalized occupancy) worked out at 0.073.

For the sequence ACGTGCTA, the binding signal (normalized occupancy) was 0.109.

Consider CCGTCTAA, for which the binding signal (normalized occupancy) amounted to 0.0757.

For the sequence ACCCAGAG, the binding signal (normalized occupancy) was determined as 0.0694.

In the case of CGTGTGAC, the binding signal (normalized occupancy) was found to be 0.0871.

With CAATATCC, the binding signal (normalized occupancy) was determined as 0.0823.

With CCGATTGC, the binding signal (normalized occupancy) stood at 0.0722.

As for TACCGCGA, the binding signal (normalized occupancy) was 0.0732.

With GTAGGTAA, the binding signal (normalized occupancy) came to 0.0764.

For AGCGCCGG, the binding signal (normalized occupancy) worked out at 0.0686.

Regarding AACCTAAC, the binding signal (normalized occupancy) turned out to be 0.0728.

For the sequence AAATCGAT, the binding signal (normalized occupancy) stood at 0.0677.

As for AACCGGGT, the binding signal (normalized occupancy) stood at 0.0731.

On to AGCCCGCC, for which the binding signal (normalized occupancy) turned out to be 0.0647.

As to ATGTGGAG, the binding signal (normalized occupancy) worked out at 0.0861.

Take AGCAATAG: the binding signal (normalized occupancy) came to 0.0796.

GTCGACGA: the binding signal (normalized occupancy) stood at 0.0675.

AATGATAT: the binding signal (normalized occupancy) amounted to 0.0814.

Take AGTGAGCC: the binding signal (normalized occupancy) is 0.0749.

On to AAGAGGGA, for which the binding signal (normalized occupancy) worked out at 0.0761.

As to CACGCATA, the binding signal (normalized occupancy) stood at 0.0976.

CCTCATGC: the binding signal (normalized occupancy) stood at 0.109.

With GCGTTAAA, the binding signal (normalized occupancy) amounted to 0.0729.

Regarding CGAAGGTC, the binding signal (normalized occupancy) stood at 0.0691.

For GTTAACGA, the binding signal (normalized occupancy) is 0.0721.

With AACTAGGT, the binding signal (normalized occupancy) was found to be 0.0712.

Regarding ACTAATCA, the binding signal (normalized occupancy) turned out to be 0.0747.

For the sequence ACCGTCCG, the binding signal (normalized occupancy) was determined as 0.0715.

In the case of GACATATC, the binding signal (normalized occupancy) turned out to be 0.0794.

In the case of AGCGTGGC, the binding signal (normalized occupancy) came out at 0.108.

In the case of AGAGCGAC, the binding signal (normalized occupancy) turned out to be 0.0679.

For TAAAAAAA, the binding signal (normalized occupancy) was 0.0771.

As to AAATAAAC, the binding signal (normalized occupancy) is 0.0754.

Regarding AGAAATGA, the binding signal (normalized occupancy) turned out to be 0.0741.

GAACGGGC: the binding signal (normalized occupancy) came out at 0.0687.

For CTCGGCCC, the binding signal (normalized occupancy) was 0.0689.

For CATCGATG, the binding signal (normalized occupancy) amounted to 0.0853.

As for AATTCCGT, the binding signal (normalized occupancy) was 0.0746.

For CCATTGAG, the binding signal (normalized occupancy) amounted to 0.0704.

Regarding CTTCACTC, the binding signal (normalized occupancy) came to 0.0724.

For the sequence ACGACGTA, the binding signal (normalized occupancy) amounted to 0.0786.

GTTACCCA: the binding signal (normalized occupancy) stood at 0.0762.

As for AATAGGGT, the binding signal (normalized occupancy) was 0.0784.

As to CGAGCCTC, the binding signal (normalized occupancy) worked out at 0.0732.

In the case of CTTTCGCC, the binding signal (normalized occupancy) turned out to be 0.0709.

Consider TGACTAAA, for which the binding signal (normalized occupancy) was 0.0728.

In the case of AGACGCAG, the binding signal (normalized occupancy) was 0.069.

On to TCGTAAAA, for which the binding signal (normalized occupancy) was determined as 0.0794.

Consider CCATGTCA, for which the binding signal (normalized occupancy) was 0.0838.

As to CATTCCGC, the binding signal (normalized occupancy) turned out to be 0.077.

As for ATTAGTCA, the binding signal (normalized occupancy) was 0.0775.

In the case of ATGACGAG, the binding signal (normalized occupancy) amounted to 0.0829.

Turning to GAGGTGAC, the binding signal (normalized occupancy) amounted to 0.0727.

Turning to CGGGTCGC, the binding signal (normalized occupancy) turned out to be 0.0743.

GGAGTCAC: the binding signal (normalized occupancy) is 0.0757.

Regarding ATACAATC, the binding signal (normalized occupancy) was 0.0757.

With AGCTCAGC, the binding signal (normalized occupancy) stood at 0.0688.

Regarding CAAGAATC, the binding signal (normalized occupancy) worked out at 0.076.

GATCCATC: the binding signal (normalized occupancy) worked out at 0.0795.

Take GCCACAAC: the binding signal (normalized occupancy) came out at 0.077.

CAGTTGCC: the binding signal (normalized occupancy) amounted to 0.0701.

For AATTGTAT, the binding signal (normalized occupancy) is 0.0798.

As to CAAATTGG, the binding signal (normalized occupancy) was 0.0737.

Take CAAAACTC: the binding signal (normalized occupancy) was 0.0702.

Regarding CATGATCG, the binding signal (normalized occupancy) came to 0.0869.

Regarding ATGTTGGG, the binding signal (normalized occupancy) was determined as 0.0795.

Regarding CCCGCATC, the binding signal (normalized occupancy) is 0.0765.

For the sequence ACACATTA, the binding signal (normalized occupancy) came out at 0.0926.

For AAACTACA, the binding signal (normalized occupancy) came out at 0.0812.

Take CGAGACAA: the binding signal (normalized occupancy) is 0.0709.

Turning to TACTCAAA, the binding signal (normalized occupancy) came out at 0.0761.

In the case of AGTTTGTC, the binding signal (normalized occupancy) was determined as 0.0692.

For the sequence GGCTGGCA, the binding signal (normalized occupancy) amounted to 0.0683.

Take GCCGTAAA: the binding signal (normalized occupancy) turned out to be 0.0705.

Consider CATATCCC, for which the binding signal (normalized occupancy) came out at 0.0889.

For the sequence CCAGAACC, the binding signal (normalized occupancy) turned out to be 0.0732.

Take CATTCAGA: the binding signal (normalized occupancy) stood at 0.0779.

Turning to ATAACCAT, the binding signal (normalized occupancy) came to 0.0835.

On to CCGGCGTC, for which the binding signal (normalized occupancy) amounted to 0.0681.

AACCTGCG: the binding signal (normalized occupancy) was determined as 0.0708.

CTCGCCGC: the binding signal (normalized occupancy) was determined as 0.0695.

In the case of GCCCCAGC, the binding signal (normalized occupancy) turned out to be 0.0685.

Take ACTAGCTA: the binding signal (normalized occupancy) is 0.0697.

With CATCCGGG, the binding signal (normalized occupancy) came to 0.0755.

For the sequence AGACTGCT, the binding signal (normalized occupancy) was found to be 0.0699.

As for GCGCTTCC, the binding signal (normalized occupancy) was 0.0759.

Regarding GCCAAGAA, the binding signal (normalized occupancy) amounted to 0.0725.

On to TACAACCA, for which the binding signal (normalized occupancy) was 0.0807.

For CGTCGGCA, the binding signal (normalized occupancy) stood at 0.0746.

For the sequence AATGTGCC, the binding signal (normalized occupancy) is 0.0816.

As to ACTGCTTG, the binding signal (normalized occupancy) worked out at 0.0729.

Take GCGAAAAA: the binding signal (normalized occupancy) stood at 0.0719.

In the case of TCAGAAGA, the binding signal (normalized occupancy) stood at 0.0734.

In the case of ACTGGTTG, the binding signal (normalized occupancy) was found to be 0.0719.

For the sequence ACATATGT, the binding signal (normalized occupancy) is 0.0906.

Regarding CATTTCCG, the binding signal (normalized occupancy) is 0.0753.

Take GCCGAGGA: the binding signal (normalized occupancy) was 0.0719.

As to ACGCCGGC, the binding signal (normalized occupancy) is 0.0683.

GGTGCTTA: the binding signal (normalized occupancy) was determined as 0.0737.

Regarding ACAAGTAG, the binding signal (normalized occupancy) turned out to be 0.0776.

On to ATAGGCGG, for which the binding signal (normalized occupancy) came out at 0.0747.

In the case of AACGTAAA, the binding signal (normalized occupancy) is 0.0808.

Take ATCTGAAC: the binding signal (normalized occupancy) is 0.0828.

Consider ACGTAAAG, for which the binding signal (normalized occupancy) was found to be 0.078.

Consider GGGCTTGA, for which the binding signal (normalized occupancy) was found to be 0.0718.

With GGACTTTA, the binding signal (normalized occupancy) was 0.0684.

For AACGTAAG, the binding signal (normalized occupancy) is 0.07.

Turning to GTGTCCCA, the binding signal (normalized occupancy) was 0.0768.

Consider ACCATCTA, for which the binding signal (normalized occupancy) came to 0.0832.

As for TCAGAACA, the binding signal (normalized occupancy) turned out to be 0.0736.

As to ACAAGTAC, the binding signal (normalized occupancy) was determined as 0.0777.

Take ATAAGCTG: the binding signal (normalized occupancy) was 0.0801.

In the case of ACAATCAC, the binding signal (normalized occupancy) was determined as 0.0815.

Turning to CCAACTCA, the binding signal (normalized occupancy) was determined as 0.0733.

Regarding GCCAGGCA, the binding signal (normalized occupancy) was 0.0698.

As for GATACATA, the binding signal (normalized occupancy) turned out to be 0.0832.

In the case of AACAGGCC, the binding signal (normalized occupancy) amounted to 0.0668.

With CGGTAATA, the binding signal (normalized occupancy) came to 0.0778.

Take GCAGAGTA: the binding signal (normalized occupancy) turned out to be 0.0701.

Turning to AGTCGATA, the binding signal (normalized occupancy) amounted to 0.0744.

For the sequence GCTAGAGA, the binding signal (normalized occupancy) is 0.0773.

As for GGAGTAGA, the binding signal (normalized occupancy) was 0.0773.

On to AGATCTAG, for which the binding signal (normalized occupancy) was 0.0767.

Turning to TATAAAGA, the binding signal (normalized occupancy) was determined as 0.0757.

In the case of AAGCTGTC, the binding signal (normalized occupancy) stood at 0.0726.

For CTCATCCA, the binding signal (normalized occupancy) amounted to 0.0825.

Take CTGTACGA: the binding signal (normalized occupancy) amounted to 0.0731.

As to CCTCTTAC, the binding signal (normalized occupancy) was 0.0756.

On to AATATTAT, for which the binding signal (normalized occupancy) was 0.0854.

As for AGGTAAGA, the binding signal (normalized occupancy) is 0.0704.

As for AGCGATCG, the binding signal (normalized occupancy) was determined as 0.0723.

As for CTCTGTAA, the binding signal (normalized occupancy) is 0.0819.

As to ACCAGCGT, the binding signal (normalized occupancy) is 0.0751.

Take AGCCTGGC: the binding signal (normalized occupancy) was 0.0709.

AAATGAAA: the binding signal (normalized occupancy) came to 0.0762.

Take CAGCTCGG: the binding signal (normalized occupancy) stood at 0.0628.

Turning to GCCCGCAA, the binding signal (normalized occupancy) worked out at 0.0684.

For ACCTGTCC, the binding signal (normalized occupancy) is 0.0789.

Take TCTTGGAA: the binding signal (normalized occupancy) worked out at 0.0712.

With AGGCGAAA, the binding signal (normalized occupancy) was found to be 0.069.

On to CAAAACGC, for which the binding signal (normalized occupancy) amounted to 0.0707.

Turning to GCCTATAA, the binding signal (normalized occupancy) is 0.0799.

In the case of ACTCCACC, the binding signal (normalized occupancy) was determined as 0.0771.

For CATTTGCC, the binding signal (normalized occupancy) is 0.0734.

Turning to AACTGCAC, the binding signal (normalized occupancy) is 0.0731.

In the case of GTCCATAA, the binding signal (normalized occupancy) was determined as 0.0795.

Turning to ACTTAGCT, the binding signal (normalized occupancy) was found to be 0.0686.

Regarding CGATCACA, the binding signal (normalized occupancy) came to 0.0846.

Take ACAAACAC: the binding signal (normalized occupancy) was 0.0794.

For the sequence AACGGCAA, the binding signal (normalized occupancy) came to 0.0694.

Regarding ACCCTATG, the binding signal (normalized occupancy) is 0.0778.

With CACTCATA, the binding signal (normalized occupancy) amounted to 0.0823.

As for CGCGGACC, the binding signal (normalized occupancy) worked out at 0.0689.

Take CGAATACG: the binding signal (normalized occupancy) was 0.0739.

On to CTGCTTTA, for which the binding signal (normalized occupancy) is 0.0757.

With CCAGGTAC, the binding signal (normalized occupancy) amounted to 0.0724.

CGTCAGTC: the binding signal (normalized occupancy) stood at 0.069.

Consider GCATTTAA, for which the binding signal (normalized occupancy) stood at 0.0769.

In the case of GTTGACTA, the binding signal (normalized occupancy) amounted to 0.0722.

With ATCCTGGG, the binding signal (normalized occupancy) came to 0.079.

For the sequence CTCATTCC, the binding signal (normalized occupancy) worked out at 0.0776.

With TCTTAGAA, the binding signal (normalized occupancy) was determined as 0.0718.

On to AAATTAGT, for which the binding signal (normalized occupancy) is 0.0734.

Regarding CAATTTCC, the binding signal (normalized occupancy) turned out to be 0.0744.

In the case of CGCTTGTC, the binding signal (normalized occupancy) is 0.0746.

On to AGTATGGG, for which the binding signal (normalized occupancy) amounted to 0.0836.

Turning to GTTTCATA, the binding signal (normalized occupancy) is 0.0788.

TCCAAGAA: the binding signal (normalized occupancy) amounted to 0.0684.

Turning to AATTCATA, the binding signal (normalized occupancy) is 0.0762.
